From paper PMC3660009 (Molecular cell, 2013)

T1: GST-tagged 3xMBT (the three MBT repeats of L3MBTL1, amino acids 190-530) (UniProt Q9Y468-1 190-530)
T1 sequence (looked up): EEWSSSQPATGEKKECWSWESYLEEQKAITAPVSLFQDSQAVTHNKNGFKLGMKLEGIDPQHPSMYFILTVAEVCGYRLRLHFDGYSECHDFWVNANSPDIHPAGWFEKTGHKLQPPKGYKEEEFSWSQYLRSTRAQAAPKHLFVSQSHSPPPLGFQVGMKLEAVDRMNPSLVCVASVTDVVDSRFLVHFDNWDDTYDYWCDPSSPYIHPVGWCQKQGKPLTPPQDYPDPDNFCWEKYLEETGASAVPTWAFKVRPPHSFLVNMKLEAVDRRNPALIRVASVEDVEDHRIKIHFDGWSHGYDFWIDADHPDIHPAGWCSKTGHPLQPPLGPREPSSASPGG


Molecular target: T1, GST-tagged 3xMBT (the three MBT repeats …)
Test: pull-down

binding result | Binder
binds | p53K382me1 peptide (p53 […]) (monomethyl-lysine at 382; biotin (position not given)) peptide: not shown
binds | p53K382me2 peptide (p53 […]) (dimethyl-lysine at 382; biotin (position not given)) peptide: not shown
